Data from PubChem BioAssay AID1347165 (National Center for Advancing Translational Sciences (NCATS), 2019).
Several values for one entry are separate records, joined by “and”; a condition that tells them apart may be missing. Equal values may be shown once. Among all 220,000 compounds or so, about 5,700 (2.6%) were called active. The shares of active, inactive and inconclusive entries below differ from those in the screen. Calls follow the shape of the dose curve; as a rule, active = well fitted inhibition curve with a large enough effect; inconclusive = small, poorly fitted or top-dose-only effect; inactive = no such curve, though single readings can be large or run the other way. Potencies of inconclusive entries are doubtful fits and often do not repeat.

What follows are compounds tested against Lysine-specific demethylase 5B (Homo sapiens) (UniProt Q9UGL1) (assay: Primary screen for KDM5B Histone Demethylases FDH-coupled qHTS). Conditions: FDH-coupled NADH fluorescence (FDH is formaldehyde dehydrogenase); series mostly up to 57.7 µM.
Summary of the method: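 Compound dilutions met 200 nM (final) KDM5BΔAP for 10 min at room temperature before substrate addition. The substrate mix held 12.5 µM H3K4me3 with cofactors 25 µM α-ketoglutarate and 50 µM Fe²⁺. NADH signal gain over 30 min defined activity.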
Also: nearly all actives have a fitted effect of over 70% in size.
Potency is read from the fitted curve at half-maximal effect; tags tell the direction and shape of the fitted curve.

Chain of UniProt Q9UGL1 (Q9UGL1 whole entry, looked up): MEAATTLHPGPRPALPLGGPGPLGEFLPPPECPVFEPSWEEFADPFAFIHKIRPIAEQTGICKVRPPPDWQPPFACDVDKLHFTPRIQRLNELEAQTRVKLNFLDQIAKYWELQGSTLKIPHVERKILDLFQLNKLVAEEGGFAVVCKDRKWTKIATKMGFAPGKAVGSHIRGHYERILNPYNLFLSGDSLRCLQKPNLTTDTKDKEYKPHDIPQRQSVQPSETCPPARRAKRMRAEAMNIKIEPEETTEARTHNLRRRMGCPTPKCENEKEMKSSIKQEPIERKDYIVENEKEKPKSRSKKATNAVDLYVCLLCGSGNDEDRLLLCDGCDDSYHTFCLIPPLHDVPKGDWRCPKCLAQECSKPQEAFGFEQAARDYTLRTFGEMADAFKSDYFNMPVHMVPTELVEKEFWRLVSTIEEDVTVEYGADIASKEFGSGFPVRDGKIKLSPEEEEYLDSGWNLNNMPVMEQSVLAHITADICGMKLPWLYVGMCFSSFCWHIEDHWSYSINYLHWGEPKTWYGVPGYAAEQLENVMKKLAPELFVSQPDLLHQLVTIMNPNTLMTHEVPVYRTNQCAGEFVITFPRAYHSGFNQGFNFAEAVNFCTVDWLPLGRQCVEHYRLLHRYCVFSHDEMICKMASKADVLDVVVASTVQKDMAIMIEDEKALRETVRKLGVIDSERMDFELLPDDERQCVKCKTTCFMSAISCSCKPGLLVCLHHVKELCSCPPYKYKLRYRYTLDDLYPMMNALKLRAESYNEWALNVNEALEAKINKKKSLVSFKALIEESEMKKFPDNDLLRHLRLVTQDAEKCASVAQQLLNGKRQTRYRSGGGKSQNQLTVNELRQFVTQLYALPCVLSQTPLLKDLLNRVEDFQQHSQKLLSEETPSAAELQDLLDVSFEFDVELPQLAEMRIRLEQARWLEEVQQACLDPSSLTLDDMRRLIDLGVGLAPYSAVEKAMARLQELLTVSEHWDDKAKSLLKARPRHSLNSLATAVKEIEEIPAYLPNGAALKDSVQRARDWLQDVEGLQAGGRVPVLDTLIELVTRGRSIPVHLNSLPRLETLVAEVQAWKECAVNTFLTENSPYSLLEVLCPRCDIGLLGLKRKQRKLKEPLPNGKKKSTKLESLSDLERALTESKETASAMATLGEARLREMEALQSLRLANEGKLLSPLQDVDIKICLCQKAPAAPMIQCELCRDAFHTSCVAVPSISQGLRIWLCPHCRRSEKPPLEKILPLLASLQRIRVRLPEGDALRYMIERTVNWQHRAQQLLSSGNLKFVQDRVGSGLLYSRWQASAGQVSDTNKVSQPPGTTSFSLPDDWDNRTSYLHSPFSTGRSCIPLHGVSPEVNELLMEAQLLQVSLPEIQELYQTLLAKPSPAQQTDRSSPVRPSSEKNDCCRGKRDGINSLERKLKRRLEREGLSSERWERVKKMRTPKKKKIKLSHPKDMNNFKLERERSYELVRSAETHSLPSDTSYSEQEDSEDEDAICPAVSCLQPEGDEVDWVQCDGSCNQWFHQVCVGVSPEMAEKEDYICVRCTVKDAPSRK

Row | Compound | Potency
1 | Cc1cnc(C(=O)NCC(=O)N2CCCCCNC(=O)CC2c2ccccc2)cn1 (stereo unspecified) | inactive
2 | COc1ccc(-c2cc(C(=O)Nc3cc(Cl)ccc3OC)no2)cc1 | inconclusive: 10 µM [inhibitor, partial curve, poor fit]
3 | CCS(=O)(=O)c1c(Nc2cc(C)ccc2C)sc(C(=O)c2ccccc2)c1N | inconclusive: 17.8 µM [inhibitor, partial curve, poor fit]
4 | Cc1ccn2cc(-c3c(-c4ccccc4C)n(C)c(=O)n(C)c3=O)nc2c1 | inconclusive: 22.4 µM [inhibitor, partial curve, poor fit]
5 | CC1=C(C(=O)Nc2ccccc2)C(c2cc(Br)ccc2F)n2ncc(C(=O)Nc3ccccc3)c2N1 (stereo unspecified) | inconclusive: 28.2 µM [inhibitor, partial curve, poor fit]
6 | CC(=O)N1CCC(c2nn(-c3ccc(F)cc3)c(=O)[nH]2)CC1 | inactive
7 | Cc1nc(N2CCCC2)ncc1C(=O)N1CCN(c2ccccc2F)CC1 | inconclusive: 28.2 µM [inhibitor, single point]
8 | COC(=O)c1cccc2c1-c1ccccc1/C2=N\O | inactive
9 | CC(C)OCCCNc1ncnc2c1CN(c1ccc(Cl)cc1)C(=O)CN2C | inconclusive: 28.2 µM [inhibitor, partial curve, poor fit]
10 | C=CCNC(=O)c1cn2c(n1)CN(C(C)=O)CC2 | inconclusive: 89.1 µM [inhibitor, partial curve, poor fit]
11 | CCCCNC(=O)C1CCC(C(=O)NCCCC)CC1 (stereo unspecified) | inactive
12 | Cc1cc(C)c2oc(-c3ccc(C)c(NC(=O)/C=C/c4ccco4)c3)nc2c1 | inconclusive: 28.2 µM [inhibitor, partial curve, poor fit]
13 | COc1cccc(NC(=O)c2ccc(-c3nnc4ccc(NC(=O)C5CCC5)cn34)cc2)c1 | active: 25.1 µM
14 | Cc1noc(-c2cccs2)c1C(=O)NC1CCc2ccccc21 (stereo unspecified) | active: 28.2 µM
15 | CC(C)NC[C@H]1O[C@@H](CO)[C@@H](O)[C@H]1N1CCOCC1 | inconclusive: 12.6 µM [inhibitor, partial curve]
16 | O=S(Cc1ccc(Cl)cc1)Cc1cccc(F)c1 (stereo unspecified) | inactive
17 | COC(=O)CCNC(=O)c1ccccc1-c1ncc(-c2ccc(C)cc2)o1 | inconclusive: 20 µM [inhibitor, partial curve, poor fit]
18 | O=C(OCCCN1CCOCC1)c1ccc(O)c(O)c1 | inconclusive: 39.8 µM [inhibitor, single point]
19 | O=C(NCc1ccccc1)c1csc(N2CCN(c3ccc(Cl)cc3)CC2)n1 | inconclusive: 22.4 µM [inhibitor, partial curve]
20 | O=C(Cc1c[nH]c2ncc(-c3ccccc3)cc12)NC1CC1 | inconclusive: 70.8 µM [inhibitor, partial curve, poor fit]
21 | CSc1ccccc1C(=O)Nc1nc(-c2nc3ccccc3s2)cs1 | inconclusive: 31.6 µM [inhibitor, single point]

Row | Compound | Potency
22 | c1ccc(-c2nc3ncccc3[nH]2)nc1 | inconclusive: 141 µM [inhibitor, partial curve, poor fit] and active: 31.6 µM
23 | O=C(C1=Cc2ccccc2OC1)N1CCN(S(=O)(=O)c2cccc(Cl)c2)CC1 | inactive
24 | CSCCC(=O)N1CCCC(CCc2ccccc2F)C1 (stereo unspecified) | inactive
25 | c1cncc(CN2CCC[C@H]2c2nc(-c3ccc(-n4ccnc4)nc3)no2)c1 | inconclusive: 11.2 µM [inhibitor, single point]
26 | COc1ccccc1N1CCN(C(=O)c2cnc(N3CCOCC3)c3ccccc23)CC1 | inconclusive: 31.6 µM [inhibitor, single point]
27 | Cc1oc2c(c1C(=O)NCCc1ccncc1)CN(C)CC2 | inconclusive: 39.8 µM [inhibitor, single point]
28 | Cc1c(Cl)cccc1NC(=O)Cn1ccn2nc(-c3ccccc3)c(CO)c2c1=O | inconclusive: 28.2 µM [inhibitor, partial curve]
29 | CCN1CCSc2ccc(C(=O)NCc3ccccc3Br)cc21 | inconclusive: 28.2 µM [inhibitor, partial curve, poor fit]
30 | Cc1cc(CN2CCN(c3ccc(F)cc3)CC2)cs1 | inconclusive: 35.5 µM [inhibitor, single point]
31 | CCC(=O)Nc1nnc2n1CCS2 | inconclusive: 8.91 µM [inhibitor, partial curve, poor fit]
32 | CCCCOc1ccc(C(=O)N(Cc2ccco2)Cc2ccco2)cc1 | inconclusive: 2.24 µM [inhibitor, full curve, poor fit]
33 | COc1ccc(-c2ccccc2NC(=O)C2CCCN(Cc3cccnc3)C2)cc1 (stereo unspecified) | inactive
34 | COc1ccc(-n2c(=O)c3c(c4cc(OC)ccc4n3C)n(CCC(C)C)c2=O)cc1 | inconclusive: 28.2 µM [inhibitor, partial curve, poor fit]
35 | Cc1[nH]nc2c1C(c1cccc(F)c1)C(C#N)=C(N)O2 (stereo unspecified) | inconclusive: 10 µM [inhibitor, partial curve, poor fit]
36 | CNc1ncccc1C(=O)N1CCCC2(C1)C(=O)N(C)c1ccccc12 (stereo unspecified) | inconclusive: 31.6 µM [inhibitor, partial curve, poor fit]
37 | COC(=O)c1ccc([C@H]2Nc3ccc(S(=O)(=O)Nc4cccc(C)c4)cc3[C@H]3C=CC[C@H]32)cc1 | inconclusive: 11.2 µM [inhibitor, partial curve, poor fit]
38 | O=C(Cc1cccc(F)c1)Nc1ccc2ncnc(N3CCCCC3)c2c1 | inconclusive: 28.2 µM [inhibitor, partial curve]
39 | CCOC(=O)C1=C(O)C(=O)N(C2CCCCC2)C1 | inconclusive: 39.8 µM [inhibitor, partial curve, poor fit]
40 | O=C(NCc1c[nH]c2ncccc12)c1ccc(Cl)cc1 | inconclusive: 35.5 µM [inhibitor, single point]
41 | CC(C)NC(=O)C1(C)CN(Cc2ccccc2)Cc2ccc(N3CCOCC3)nc21 (stereo unspecified) | active: 28.2 µM
